The list shows a part of the results. Single values of this set are uncertain.
T1: G3BP2_NTF2_1_Q9UN86_1_139
T1 chain: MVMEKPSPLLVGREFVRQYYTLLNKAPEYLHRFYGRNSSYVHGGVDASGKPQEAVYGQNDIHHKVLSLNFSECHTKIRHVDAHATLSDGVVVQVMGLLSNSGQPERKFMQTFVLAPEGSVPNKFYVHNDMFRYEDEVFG

T2: ZMYND11_coiled-coil-MYND__Q15326_480_602
T2 chain: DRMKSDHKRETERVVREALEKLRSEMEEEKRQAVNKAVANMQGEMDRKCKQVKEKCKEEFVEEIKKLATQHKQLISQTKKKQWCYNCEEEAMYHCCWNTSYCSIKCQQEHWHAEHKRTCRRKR


Biological target: FKBP1A_full-length__P62942_1_108, P62942
Assay: mutation enrichment score (mutant vs wild-type peptide binding to bait); baits are purified protein domains named by gene / domain / UniProt id / residues; peptides come from disordered regions of human proteins; higher = mutation enhances binding relative to wild type
Conditions: number of wild-type / mutant comparisons summed (bounds the score): 6; paper call: no_effect; wild-type window: …

Sequence of FKBP1A_full-length__P62942_1_108, P62942 (P62942 whole entry, the tested form may be a part): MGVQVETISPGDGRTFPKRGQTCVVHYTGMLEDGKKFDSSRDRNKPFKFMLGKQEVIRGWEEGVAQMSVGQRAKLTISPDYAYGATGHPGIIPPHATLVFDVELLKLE

Binder | mutation enrichment score
KLEVTEMTKNSATLAWLPPLCDGGAKIDGYITSYREEEQPA [R19751C R19751C] | -3.9

Biological target: USP7_MATH-TRAF__Q93009_53_206
Assay: as above
Conditions: number of wild-type / mutant comparisons summed (bounds the score): 10; paper call: no_effect; wild-type window: …

Sequence of USP7_MATH-TRAF__Q93009_53_206 (chain, as listed by the source): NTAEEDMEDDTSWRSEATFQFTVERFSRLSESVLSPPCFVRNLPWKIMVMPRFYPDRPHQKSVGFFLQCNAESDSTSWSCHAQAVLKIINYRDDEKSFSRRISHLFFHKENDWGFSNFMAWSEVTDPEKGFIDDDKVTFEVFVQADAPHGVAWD

Binder | mutation enrichment score
KLEVTEMTKNSATLAWLPPLCDGGAKIDGYITSYREEEQPA [R19751C R19751C] | -4

Biological target: T1, G3BP2_NTF2_1_Q9UN86_1_139
Assay: as above
Conditions: number of wild-type / mutant comparisons summed (bounds the score): 6; paper call: no_effect; wild-type window: …

Binder | mutation enrichment score
VGEFPVLFFGSNDYLWTHQAQVFPYMEGDVSSKDKMGKGVD [R1811Q R1811Q] | 4.7
EGTLTVEAPMPKLATQSNEISIPVTFESRAQLGGPEAAKSD [T180S T180S] | -2
MFPSPALTPTPFSVKDILNLQQQQRSLAAAGELSARLEATL [E21Q E21Q] | -1
IFQDVLLQFLDTQAPMLTDPQSESERVEFFNLVLLFCELIR [R585Q R585Q] | 3
MEFDTRERWENPLMGWASTAHPLSNMVLTFSTKEDAVSFAE [D119H D119H] | -5.6
MRHDVGEFPVLFFGSNDYLWPHQARVFPYMEGDVSSKDKMG [T1807P T1807P] | -1
IFDSDWNPHQDLQAQDRAHRVGQQNEVRVLRLCTVNSVEEK [I1193V I1193V] | 1
FPSPALTPTPFSVKDILNLEPQQRSLAAAGELSARLEATLA [Q22P Q22P] | -1
FPSPALTPTPFSVKDILNLERQQRSLAAAGELSARLEATLA [Q22R Q22R] | -1
MFPSPALTPTPFSVKDILNLSQQQRSLAAAGELSARLEA [N19S N19S] | -1
SGNVRSPASPNEFAFGSYVPLFAKTSERSNPFSQKSSFLDF [S559L S559L] | -5
TLTVEAPMPKLATQSNEITILVTFESRAQLGGPEAAKSDET [P182L P182L] | -2
TLTVEAPMPKLATQSNEITISVTFESRAQLGGPEAAKSDET [P182S P182S] | -2
QLLERFYDPLAGTVFVDFGFHLLDGQEAKKLNVQWLRAQLG [Q1100H Q1100H] | 5.5

Biological target: T2, ZMYND11_coiled-coil-MYND__Q15326_480_602
Assay: as above
Conditions: number of wild-type / mutant comparisons summed (bounds the score): 6; paper call: no_effect; wild-type window: …

Binder | mutation enrichment score
EGTLTVEAPMPKLATQSNEISIPVTFESRAQLGGPEAAKSD [T180S T180S] | -1
TLTVEAPMPKLATQSNEITILVTFESRAQLGGPEAAKSDET [P182L P182L] | -1
TLTVEAPMPKLATQSNEITISVTFESRAQLGGPEAAKSDET [P182S P182S] | 0

Biological target: T1, G3BP2_NTF2_1_Q9UN86_1_139
Assay: as above
Conditions: number of wild-type / mutant comparisons summed (bounds the score): 12; paper call: diminished; wild-type window: …

Binder | mutation enrichment score
APMPKLATQSNEITIPVTFELRAQLGGPEAAKSDETAAK [S187L S187L] | -7
APMPKLATQSNEITIPVTFEWRAQLGGPEAAKSDETAAK [S187W S187W] | -7
AEICHPRAVPSNIDKMRHDVEEFPVLFFGSNDYLWTHQARV [G1792E G1792E] | -7.8
AEICHPRAVPSNIDKMRHDVVEFPVLFFGSNDYLWTHQARV [G1792V G1792V] | -6

Same assay, conditions: number of wild-type / mutant comparisons summed (bounds the score): 12; paper call: enhanced; wild-type window: …

Binder | mutation enrichment score
DDEEAPKPSSDLEAGKQLPFVYGDIPPGMVSEPLEDLDPYY [I62V I62V] | 6.9
LSAPSAPIFQDVLLQFLDTQSPMLTDPRSESERVEFFNLVL [A578S A578S] | 8

Biological target: FKBP1A_full-length__P62942_1_108, P62942
Assay: as above
Conditions: number of wild-type / mutant comparisons summed (bounds the score): 18; paper call: enhanced; wild-type window: …

Binder | mutation enrichment score
HFGWPGWEMGPPGNWSPRPPCAGEARPGPTAESASGPSEDP [R212C R212C] | 7

Biological target: GABARAP_ATG8__O95166_2_115
Assay: as above
Conditions: number of wild-type / mutant comparisons summed (bounds the score): 6; paper call: no_effect; wild-type window: …

Sequence of GABARAP_ATG8__O95166_2_115 (chain, as listed by the source): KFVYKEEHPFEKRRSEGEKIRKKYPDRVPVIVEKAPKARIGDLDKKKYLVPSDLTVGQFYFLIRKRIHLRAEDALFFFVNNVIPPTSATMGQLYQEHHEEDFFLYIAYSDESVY

Binder | mutation enrichment score
QLLERFYDPLAGTVFVDFGFHLLDGQEAKKLNVQWLRAQLG [Q1100H Q1100H] | 2.9

Biological target: MAP1LC3B_ATG8__Q9GZQ8_2_119
Assay: as above
Conditions: number of wild-type / mutant comparisons summed (bounds the score): 6; paper call: no_effect; wild-type window: …

Binder | mutation enrichment score
QLLERFYDPLAGTVFVDFGFHLLDGQEAKKLNVQWLRAQLG [Q1100H Q1100H] | 0.22

— the supplement of paper PMC11369174, “Proteome-scale characterisation of motif-based interactome rewiring by disease mutations” (Molecular Systems Biology, 2024)
